In publication PMC12820563, “FoxP3 forms a head-to-head dimer in vivo and stabilizes its multimerization on adjacent microsatellites” one finds binding signal data, which are given here for 40 sequences.

Some of the results follow.

The target of the test is T1, MBP-FoxP1dN (Mus musculus, UniProt P58462 326-579).
T1 sequence: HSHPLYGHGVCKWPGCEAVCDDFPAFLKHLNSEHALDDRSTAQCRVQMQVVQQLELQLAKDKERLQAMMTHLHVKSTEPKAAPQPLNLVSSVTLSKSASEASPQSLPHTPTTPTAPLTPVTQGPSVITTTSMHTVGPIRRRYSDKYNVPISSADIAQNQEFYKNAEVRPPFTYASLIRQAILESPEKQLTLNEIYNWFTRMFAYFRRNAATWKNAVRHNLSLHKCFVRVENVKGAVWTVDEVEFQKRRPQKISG
Description: PD-seq (MBP pull-down with sequencing); 20 mM Tris-HCl pH 7.5, 100 mM NaCl, 1.5 mM MgCl2, 0.4 uM protein, 0.1 uM dsDNA library, 30 min, room temperature, amylose pull-down; high values mean tight binding. The conditions noted are these: protein: recombinant; tags: His6-MBP; chain copies: 2; dsDNA, one strand shown. The essentials: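 The N-terminus-lacking fragment of mouse FoxP3 or FoxP1 carried a His6-MBP tag and was expressed in E. coli. At 0.4 µM it was incubated with 0.1 µM Klenow-filled degenerate double-stranded DNA library for 30 min at room temperature in Tris pH 7.5 buffer with NaCl and MgCl2, and complexes were caught on amylose resin, washed three times, released with proteinase K, PCR-barcoded and Illumina-sequenced. Binding is reads-per-million enrichment of pull-down over input with replicates pooled.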
On to “GATGATTGTTCTCCCAGCTGATGAATTACACTTCTCGAGTAAACAAATTTTCCTAATCTTTCTGTTCAAGCGCCATCTAC”, for which the binding signal was 1.22 RPM ratio (pull-down/input). The result for “GATGATTGTTCTCCCAGCTGATGAATTACGTCATTCGAGTAAACAAATTTTCCTAATCTTTCTGTTCAAGCGCCATCTAC” reads 1.11 RPM ratio (pull-down/input); that for “GATGATTGTTCTCCCAGCTGATGAATTGTCTAACTCGAGTAAACAAATTTTCCTAATCTTTCTGTTCAAGCGCCATCTAC”, 1.12 RPM ratio (pull-down/input); that for “GATGATTGTTCTCCCAGCTGATGAATTACAAATTTCGAGTAAACAAATTTTCCTAATCTTTCTGTTCAAGCGCCATCTAC”, 1.32 RPM ratio (pull-down/input). Regarding “GATGATTGTTCTCCCAGCTGATGAATTTGGGGACTCGAGTAAACAAATTTTCCTAATCTTTCTGTTCAAGCGCCATCTAC”, the binding signal was 0.869 RPM ratio (pull-down/input). The result for “GATGATTGTTCTCCCAGCTGATGAATTGGACCCTTCGAGTAAACAAATTTTCCTAATCTTTCTGTTCAAGCGCCATCTAC” reads 0.827 RPM ratio (pull-down/input). Turning to “GATGATTGTTCTCCCAGCTGATGAATTAACCCTATCGAGTAAACAAATTTTCCTAATCTTTCTGTTCAAGCGCCATCTAC”, the binding signal is 0.904 RPM ratio (pull-down/input).

In the case of “GATGATTGTTCTCCCAGCTGATGAATTATAGCAGTCGAGTAAACAAATTTTCCTAATCTTTCTGTTCAAGCGCCATCTAC”, the binding signal was 1.02 RPM ratio (pull-down/input).

Take “GATGATTGTTCTCCCAGCTGATGAATTCCTTTCTTCGAGTAAACAAATTTTCCTAATCTTTCTGTTCAAGCGCCATCTAC”: the binding signal was 0.809 RPM ratio (pull-down/input). On to “GATGATTGTTCTCCCAGCTGATGAATTCAATAGTTCGAGTAAACAAATTTTCCTAATCTTTCTGTTCAAGCGCCATCTAC”, for which the binding signal was 0.822 RPM ratio (pull-down/input).

Take “GATGATTGTTCTCCCAGCTGATGAATTCATTTTGTCGAGTAAACAAATTTTCCTAATCTTTCTGTTCAAGCGCCATCTAC”: the binding signal was 0.976 RPM ratio (pull-down/input). “GATGATTGTTCTCCCAGCTGATGAATTAGGTTATTCGAGTAAACAAATTTTCCTAATCTTTCTGTTCAAGCGCCATCTAC”: the binding signal is 0.941 RPM ratio (pull-down/input). The result for “GATGATTGTTCTCCCAGCTGATGAATTACGCACGTCGAGTAAACAAATTTTCCTAATCTTTCTGTTCAAGCGCCATCTAC” reads 1.02 RPM ratio (pull-down/input); that for “GATGATTGTTCTCCCAGCTGATGAATTCTTGGTCTCGAGTAAACAAATTTTCCTAATCTTTCTGTTCAAGCGCCATCTAC”, 0.858 RPM ratio (pull-down/input). Take “GATGATTGTTCTCCCAGCTGATGAATTCATTACTTCGAGTAAACAAATTTTCCTAATCTTTCTGTTCAAGCGCCATCTAC”: the binding signal is 0.947 RPM ratio (pull-down/input). For “GATGATTGTTCTCCCAGCTGATGAATTATAATGTTCGAGTAAACAAATTTTCCTAATCTTTCTGTTCAAGCGCCATCTAC”, the binding signal is 1.13 RPM ratio (pull-down/input).

Turning to “GATGATTGTTCTCCCAGCTGATGAATTCTCTCCATCGAGTAAACAAATTTTCCTAATCTTTCTGTTCAAGCGCCATCTAC”, the binding signal was 0.865 RPM ratio (pull-down/input). Turning to “GATGATTGTTCTCCCAGCTGATGAATTATCGGGATCGAGTAAACAAATTTTCCTAATCTTTCTGTTCAAGCGCCATCTAC”, the binding signal was 0.87 RPM ratio (pull-down/input).

Regarding “GATGATTGTTCTCCCAGCTGATGAATTAAGTATCTCGAGTAAACAAATTTTCCTAATCTTTCTGTTCAAGCGCCATCTAC”, the binding signal is 1.06 RPM ratio (pull-down/input). The result for “GATGATTGTTCTCCCAGCTGATGAATTACTAAGATCGAGTAAACAAATTTTCCTAATCTTTCTGTTCAAGCGCCATCTAC” reads 1.09 RPM ratio (pull-down/input); that for “GATGATTGTTCTCCCAGCTGATGAATTACTGAAGTCGAGTAAACAAATTTTCCTAATCTTTCTGTTCAAGCGCCATCTAC”, 1.03 RPM ratio (pull-down/input).

As to “GATGATTGTTCTCCCAGCTGATGAATTTTGACTCTCGAGTAAACAAATTTTCCTAATCTTTCTGTTCAAGCGCCATCTAC”, the binding signal is 0.887 RPM ratio (pull-down/input). Take “GATGATTGTTCTCCCAGCTGATGAATTTTTGACCTCGAGTAAACAAATTTTCCTAATCTTTCTGTTCAAGCGCCATCTAC”: the binding signal was 0.849 RPM ratio (pull-down/input). In the case of “GATGATTGTTCTCCCAGCTGATGAATTAGGAAAATCGAGTAAACAAATTTTCCTAATCTTTCTGTTCAAGCGCCATCTAC”, the binding signal is 1.06 RPM ratio (pull-down/input). The value for “GATGATTGTTCTCCCAGCTGATGAATTCTTTGGTTCGAGTAAACAAATTTTCCTAATCTTTCTGTTCAAGCGCCATCTAC” was 0.938 RPM ratio (pull-down/input).

“GATGATTGTTCTCCCAGCTGATGAATTCCTTGCTTCGAGTAAACAAATTTTCCTAATCTTTCTGTTCAAGCGCCATCTAC”: the binding signal is 0.906 RPM ratio (pull-down/input).

With “GATGATTGTTCTCCCAGCTGATGAATTGACGGCCTCGAGTAAACAAATTTTCCTAATCTTTCTGTTCAAGCGCCATCTAC”, the binding signal was 0.983 RPM ratio (pull-down/input). As to “GATGATTGTTCTCCCAGCTGATGAATTTTCATAATCGAGTAAACAAATTTTCCTAATCTTTCTGTTCAAGCGCCATCTAC”, the binding signal is 1.22 RPM ratio (pull-down/input). Regarding “GATGATTGTTCTCCCAGCTGATGAATTGTTACCCTCGAGTAAACAAATTTTCCTAATCTTTCTGTTCAAGCGCCATCTAC”, the binding signal is 1.16 RPM ratio (pull-down/input). For “GATGATTGTTCTCCCAGCTGATGAATTGGTTCTATCGAGTAAACAAATTTTCCTAATCTTTCTGTTCAAGCGCCATCTAC”, the binding signal is 1.02 RPM ratio (pull-down/input).

Consider “GATGATTGTTCTCCCAGCTGATGAATTCAGGCGATCGAGTAAACAAATTTTCCTAATCTTTCTGTTCAAGCGCCATCTAC”, for which the binding signal is 0.825 RPM ratio (pull-down/input). As for “GATGATTGTTCTCCCAGCTGATGAATTACACATGTCGAGTAAACAAATTTTCCTAATCTTTCTGTTCAAGCGCCATCTAC”, the binding signal was 1.25 RPM ratio (pull-down/input). Consider “GATGATTGTTCTCCCAGCTGATGAATTGCTATCATCGAGTAAACAAATTTTCCTAATCTTTCTGTTCAAGCGCCATCTAC”, for which the binding signal is 1.23 RPM ratio (pull-down/input). Consider “GATGATTGTTCTCCCAGCTGATGAATTGGGGGAGTCGAGTAAACAAATTTTCCTAATCTTTCTGTTCAAGCGCCATCTAC”, for which the binding signal was 0.821 RPM ratio (pull-down/input). The result for “GATGATTGTTCTCCCAGCTGATGAATTGATGGCTTCGAGTAAACAAATTTTCCTAATCTTTCTGTTCAAGCGCCATCTAC” reads 0.937 RPM ratio (pull-down/input).

As for “GATGATTGTTCTCCCAGCTGATGAATTCGGGTTTTCGAGTAAACAAATTTTCCTAATCTTTCTGTTCAAGCGCCATCTAC”, the binding signal is 0.82 RPM ratio (pull-down/input).

For “GATGATTGTTCTCCCAGCTGATGAATTGAGCAAATCGAGTAAACAAATTTTCCTAATCTTTCTGTTCAAGCGCCATCTAC”, the binding signal was 1.07 RPM ratio (pull-down/input). Regarding “GATGATTGTTCTCCCAGCTGATGAATTCTAGAGATCGAGTAAACAAATTTTCCTAATCTTTCTGTTCAAGCGCCATCTAC”, the binding signal is 0.799 RPM ratio (pull-down/input). The result for “GATGATTGTTCTCCCAGCTGATGAATTGAGTGTGTCGAGTAAACAAATTTTCCTAATCTTTCTGTTCAAGCGCCATCTAC” reads 1.06 RPM ratio (pull-down/input); that for “GATGATTGTTCTCCCAGCTGATGAATTGCCAAGTTCGAGTAAACAAATTTTCCTAATCTTTCTGTTCAAGCGCCATCTAC”, 0.953 RPM ratio (pull-down/input).
